A collection of fitness landscapes (doi:10.1038/s41467-024-54723-y)
In all, about 18,000 sequences were measured (“TetR repression strength (sort-seq, GFP reporter)”: median about 0.23, highest 2% from about 0.68 on). This is one part of the list.

Target: TetR (class B, Tn10) (UniProt P04483)
Assay: TetR repression strength (sort-seq, GFP reporter) (relative to tetO2 = 1); higher = stronger repression
Details: E. coli
How it was run: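 Three independent transformations of E. coli SIG10-MAX were made with a low-copy plasmid library randomizing eight operator positions between a constitutive promoter and sfGFP, with constitutive TetR. Following 5 h at 37 °C in LB plus 50 µg/mL chloramphenicol, 10^6 cells went through FACS into 13 fluorescence bins, and each bin was sequenced by Illumina. Repression strength was defined as the top bin index plus one minus the read-weighted mean bin, divided by the unaltered operator's value. Averages included only members reaching ≥30 reads in all replicates with a CV ≤0.5.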

Chain of UniProt P04483 (P04483 whole entry): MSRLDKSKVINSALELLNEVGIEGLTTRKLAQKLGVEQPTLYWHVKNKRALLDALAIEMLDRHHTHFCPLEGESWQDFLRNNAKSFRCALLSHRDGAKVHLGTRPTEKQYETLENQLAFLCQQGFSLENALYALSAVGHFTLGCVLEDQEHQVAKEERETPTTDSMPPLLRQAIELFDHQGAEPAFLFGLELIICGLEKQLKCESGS

| Sequence | TetR repression strength |
| --- | --- |
| TCCCAATAAGTGTCAGAGA | 0.263 |
| TCCCAGAAAGTCTGCGAGA | 0.141 |
| TCCCATCAAGTTGGGGAGA | 0.188 |
| TCCCTTTAAGTATCGGAGA | 0.247 |
| TCCCTGAGAGTCGATGAGA | 0.237 |
| TCCCGGGGAGTAAGGGAGA | 0.315 |
| TCCCTGAGAGTTTTCGAGA | 0.204 |
| TCCCTGAGAGTGATGGAGA | 0.255 |
| TCCCGTGAAGTGGACGAGA | 0.26 |
| TCCCAACGAGTATAGGAGA | 0.0801 |
| TCCCGGGTAGTTTGAGAGA | 0.111 |
| TCCCGTTAAGTATGGGAGA | 0.312 |
| TCCCCGGGAGTCGAGGAGA | 0.526 |
| TCCCGTGTAGTAGCTGAGA | 0.463 |
| TCCCTTCTAGTTAGTGAGA | 0.295 |
| TCCCATTTAGTCTGTGAGA | 0.192 |
| TCCCCCGCAGTGCGGGAGA | 0.246 |
| TCCCTGTTAGTCGATGAGA | 0.214 |
| TCCCGTTGAGTGATGGAGA | 0.122 |
| TCCCGCCCAGTGAAGGAGA | 0.169 |
| TCCCCTCTAGTCGAGGAGA | 0.417 |
| TCCCAAACAGTGCCCGAGA | 0.339 |
| TCCCGTGCAGTACGGGAGA | 0.178 |
| TCCCTTGTAGTCAAGGAGA | 0.25 |
| TCCCCAGTAGTGCCAGAGA | 0.214 |
| TCCCGGAGAGTCATGGAGA | 0.232 |

| Sequence | TetR repression strength |
| --- | --- |
| TCCCATCAAGTCGGTGAGA | 0.0862 |
| TCCCCGCTAGTCATAGAGA | 0.104 |
| TCCCGGGAAGTACGGGAGA | 0.0188 |
| TCCCCAGCAGTAACAGAGA | 0.255 |
| TCCCGGTTAGTGAGCGAGA | 0.205 |
| TCCCAATGAGTAGGGGAGA | 0.0811 |
| TCCCCAGAAGTGCGTGAGA | 0.0661 |
| TCCCAGGGAGTCTGGGAGA | 0.244 |
| TCCCTGAAAGTTACGGAGA | 0.193 |
| TCCCTCCGAGTAGTGGAGA | 0.292 |
| TCCCTGCTAGTTGCAGAGA | 0.0649 |
| TCCCGTCTAGTGCCTGAGA | 0.293 |
| TCCCGCAGAGTGGAAGAGA | 0.347 |
| TCCCTACAAGTTTTTGAGA | 0.223 |
| TCCCCTTTAGTGGCTGAGA | 0.219 |
| TCCCATGGAGTGAGTGAGA | 0.153 |
| TCCCTTCGAGTTCTCGAGA | 0.207 |
| TCCCGTCTAGTGTGTGAGA | 0.237 |
| TCCCAGGAAGTAGGGGAGA | 0.0815 |
| TCCCTGTGAGTGTGCGAGA | 0.152 |
| TCCCAAACAGTACAAGAGA | 0.356 |
| TCCCGTAGAGTGGCCGAGA | 0.0654 |
| TCCCGCTCAGTTGCTGAGA | 0.26 |
| TCCCCGACAGTTTAGGAGA | 0.228 |
| TCCCTACGAGTCGGCGAGA | 0.207 |
| TCCCCATTAGTCCCGGAGA | 0.118 |

| Sequence | TetR repression strength |
| --- | --- |
| TCCCTTCGAGTTAATGAGA | 0.387 |
| TCCCCTCCAGTTGGGGAGA | 0.263 |
| TCCCGCGTAGTGCGTGAGA | 0.321 |
| TCCCGCCTAGTACCAGAGA | 0.382 |
| TCCCCAATAGTTGGAGAGA | 0.34 |
| TCCCCGGTAGTTCACGAGA | 0.313 |
| TCCCTTTCAGTGGCCGAGA | 0.555 |
| TCCCAATAAGTGCTCGAGA | 0.407 |
| TCCCAGGTAGTATCAGAGA | 0.215 |
| TCCCAAGGAGTCCCTGAGA | 0.288 |
| TCCCGCTAAGTACTTGAGA | 0.167 |
| TCCCCATGAGTCGTAGAGA | 0.319 |
| TCCCGTGGAGTCCTCGAGA | 0.221 |
| TCCCTAACAGTGCCCGAGA | 0.377 |
| TCCCCGCGAGTGATCGAGA | 0.375 |
| TCCCGTCTAGTTAGTGAGA | 0.719 |
| TCCCAGAAAGTGTGTGAGA | 0.213 |
| TCCCGCACAGTTCAGGAGA | 0.284 |
| TCCCATGCAGTGAGCGAGA | 0.269 |
| TCCCGTCCAGTCAATGAGA | 0.385 |
| TCCCAACCAGTAGTTGAGA | 0.545 |
| TCCCTCTAAGTAGTGGAGA | 0.0907 |
| TCCCTGCCAGTATCGGAGA | 0.247 |
| TCCCGCAGAGTTGCTGAGA | 0.271 |
| TCCCTAGGAGTGTCGGAGA | 0.496 |
| TCCCTCAGAGTCGGCGAGA | 0.225 |

| Sequence | TetR repression strength |
| --- | --- |
| TCCCTTACAGTTCGCGAGA | 0.373 |
| TCCCGATCAGTCGGTGAGA | 0.335 |
| TCCCATAAAGTGTTCGAGA | 0.401 |
| TCCCCGGAAGTGCAAGAGA | 0.628 |
| TCCCCAGAAGTATGAGAGA | 0.26 |
| TCCCGAGGAGTTACCGAGA | 0.216 |
| TCCCTGATAGTGTCGGAGA | 0.213 |
| TCCCCTCCAGTATTCGAGA | 0.315 |
| TCCCACAAAGTTTTAGAGA | 0.207 |
| TCCCGTGTAGTATGGGAGA | 0.39 |
| TCCCGACGAGTGAGGGAGA | 0.303 |
| TCCCCGTGAGTCAAGGAGA | 0.28 |
| TCCCCGGGAGTCTGGGAGA | 0.161 |
| TCCCGCGAAGTTATGGAGA | 0.415 |
| TCCCTGAGAGTCTGAGAGA | 0.196 |
| TCCCTAGTAGTCCTGGAGA | 0.137 |
| TCCCCGAGAGTACACGAGA | 0.262 |
| TCCCTTGTAGTGCTAGAGA | 0.272 |
| TCCCAGGGAGTTACGGAGA | 0.31 |
| TCCCTATCAGTGTCTGAGA | 0.556 |
| TCCCGAGAAGTGACGGAGA | 0.17 |
| TCCCTCAAAGTAAGGGAGA | 0.189 |
| TCCCGGCCAGTTCGCGAGA | 0.343 |
| TCCCACGCAGTGAACGAGA | 0.326 |
